Where a name gives a salt, the structure may show the parent alone. ± gives the standard deviation of the averaged measurements. In all, about 1,900 compounds were measured (“normalised cell viability (NPI; 0 = phenylarsine oxide control, 1 = DMSO control)”: median about 1, lowest 2% from about 0.039 on). This is one part of the list.
Test system: NCI-H1944
Assay: normalised cell viability (NPI; 0 = phenylarsine oxide control, 1 = DMSO control) (fraction of DMSO control); NCI-H1944 is a non-small cell lung cancer line; higher = more viable cells (less compound toxicity)
Conditions: 6 days
[1] = glucocorticoid arm: hydrocortisone 2.75 uM co-treatment, compound 1 µM
[2] = glucocorticoid arm: hydrocortisone 2.75 uM co-treatment, compound 5 µM
[3] = glucocorticoid arm: hydrocortisone 2.75 uM pre-treated 2 days and continued, compound 1 µM
[4] = glucocorticoid arm: hydrocortisone 2.75 uM pre-treated 2 days and continued, compound 5 µM
[5] = glucocorticoid arm: vehicle, compound 1 µM
[6] = glucocorticoid arm: vehicle, compound 5 µM
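Further: CTB read-out in 384-well plates, mean of triplicate wells, normalised per plate against 1 µM phenylarsine oxide and 0.1% DMSO, compounds added 24 h after seeding.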

Row | SMILES | normalised cell viability [1] | normalised cell viability [2] | normalised cell viability [3] | normalised cell viability [4] | normalised cell viability [5] | normalised cell viability [6]
1 | O=C(O)C1=CCCNC1 [Guvacine hydrochloride] | 1.006 ± 0.0075 | 1.013 ± 0.0058 | 1.01 ± 0.015 | 1.01 ± 0.023 | 0.991 ± 0.0017 | 0.992 ± 0.0066
2 | Nc1ncnc2c1nc(Sc1ccc(Cl)cc1)n2C1OC2COP(=O)(O)O[C@@H]2[C@@H]1O (stereo not given in full) [8-(4-Chlorophenylthio)-cAMP sodium] | 1 ± 0.013 | 1.01 ± 0.015 | 0.9937 ± 0.0055 | 1 ± 0.011 | 0.977 ± 0.01 | 0.9847 ± 0.0025
3 | O=C1CC2(CCCC2)CC(=O)N1CCCCN1CCN(c2ncccn2)CC1 [Buspirone hydrochloride] | 1 ± 0.013 | 1.02 ± 0.017 | 1.004 ± 0.01 | 1.03 ± 0.028 | 0.9927 ± 0.0067 | 0.9993 ± 0.0011
4 | Cc1cc(C)c(/C=C2\C(=O)Nc3ccccc32)[nH]1 | 1.06 ± 0.01 | 1.09 ± 0.015 | 1.07 ± 0.044 | 1.12 ± 0.017 | 1.03 | 1.03 ± 0.011
5 | Cc1cc(C)c(/C=C2\C(=O)Nc3ccccc32)[nH]1 [Semaxanib (SU5416)] | 1.09 ± 0.011 | 1.15 ± 0.046 | 1.09 ± 0.011 | 1.11 ± 0.017 | 1.023 ± 0.0058 | 1.027 ± 0.0058
6 | CC(C)c1cc(-c2ccc(F)c3ccccc23)nc(N)n1 | 0.9813 ± 0.0081 | 0.9787 ± 0.005 | 0.991 ± 0.018 | 0.993 ± 0.013 | 0.984 ± 0.025 | 1.001 ± 0.0079
7 | O=C(NOC[C@H](O)CO)c1ccc(F)c(F)c1Nc1ccc(I)cc1F | 0.621 ± 0.028 | 0.517 ± 0.034 | 0.711 ± 0.019 | 0.668 ± 0.047 | 0.418 ± 0.0087 | 0.259 ± 0.025
8 | CCn1ccnc1CC1COc2ccccc2O1 (stereo not given) [Imiloxan hydrochloride] | 1.013 ± 0.0058 | 1.01 ± 0.028 | 1.013 ± 0.0058 | 1.04 ± 0.069 | 0.996 ± 0.0035 | 1 ± 0.014
9 | COc1ccc(S(=O)(=O)N(C(C)=O)c2ccccc2/C=C/c2cc[n+]([O-])cc2)cc1 | 0.383 ± 0.019 | 0.242 ± 0.032 | 0.708 ± 0.057 | 0.515 ± 0.053 | 0.0884 ± 0.0054 | 0.0472 ± 0.00059
10 | Cc1c(F)cc(C(=O)NC2CC2)cc1-c1ccc(C(=O)NCC(C)(C)C)cn1 | 0.821 ± 0.012 | 0.801 ± 0.028 | 0.794 ± 0.033 | 0.884 ± 0.023 | 0.9853 ± 0.0067 | 0.993 ± 0.015
11 | C=CCN1CCc2c(cc(O)c(O)c2Br)[C@@H](c2ccccc2)C1 [R(+)-6-Bromo-APB hydrobromide] | 0.986 ± 0.017 | 1.01 | 0.989 ± 0.0095 | 1 ± 0.011 | 0.976 ± 0.011 | 0.9827 ± 0.0035
12 | O=C(/C=C/c1ccc(CN(CCO)CCc2c[nH]c3ccccc23)cc1)NO [LAQ824 (Dacinostat)] | 0.00706 ± 0.0016 | -0.000483 ± 0.0039 | 0.0151 ± 0.00085 | 0.00158 ± 0.00078 | 0.0063 ± 0.00096 | -0.000399 ± 0.00047
13 | Cc1cccc(C#Cc2ccccc2)n1 | 1.05 ± 0.044 | 1.02 ± 0.018 | 1.033 ± 0.0058 | 1.023 ± 0.0058 | 1.003 ± 0.0058 | 0.998 ± 0.011
14 | Cc1cccc(C#Cc2ccccc2)n1 [6-Methyl-2-(phenylethynyl)pyridine hydrochloride] | 0.9927 ± 0.0061 | 0.995 ± 0.019 | 0.999 ± 0.011 | 1.04 ± 0.074 | 0.993 ± 0.0076 | 0.987 ± 0.011
15 | N[C@H](C(=O)O)c1cc(O)cc(O)c1 [(S)-3,5-Dihydroxyphenylglycine] | 0.995 ± 0.013 | 0.974 ± 0.011 | 0.988 ± 0.011 | 0.9747 ± 0.0078 | 0.9913 ± 0.0025 | 0.9867 ± 0.0021
16 | CC(=O)O[C@]1(C(C)=O)CC[C@H]2[C@@H]3C[C@H](C)C4=CC(=O)CC[C@]4(C)[C@H]3CC[C@@]21C [Medroxyprogesterone acetate] | 1.04 | 1.02 ± 0.021 | 1.04 ± 0.011 | 0.987 ± 0.013 | 0.893 ± 0.041 | 0.838 ± 0.01
17 | COc1cc2c(Oc3ccc4[nH]c(C)cc4c3F)ncnc2cc1OCCCN1CCCC1 [Cediranib (AZD2171)] | 0.888 ± 0.016 | 0.792 ± 0.029 | 0.944 ± 0.01 | 0.889 ± 0.018 | 0.9643 ± 0.0086 | 0.912 ± 0.032
18 | CC(NC(=O)C(O)c1cc(F)cc(F)c1)C(=O)NC1C(=O)N(C)c2ccccc2-c2ccccc21 (stereo not given) | 0.973 ± 0.013 | 0.995 ± 0.017 | 0.977 ± 0.015 | 1.007 ± 0.0058 | 0.9893 ± 0.0038 | 0.9993 ± 0.0011
19 | Nc1nc2c(nc(Br)n2C2OC3COP(=O)(O)O[C@@H]3C2O)c(=O)[nH]1 (stereo not given in full) [8-Bromo-cGMP sodium] | 1.023 ± 0.0058 | 1.02 | 1.02 ± 0.01 | 1 ± 0.028 | 1.01 ± 0.011 | 1.01 ± 0.015
20 | O=[N+]([O-])c1cccc2cn[nH]c12 [7-Nitroindazole] | 1.01 ± 0.015 | 0.999 ± 0.045 | 1.01 ± 0.021 | 0.844 ± 0.25 | 1.013 ± 0.0058 | 1.02 ± 0.01
21 | COc1ccccc1OCC(O)CN1CCN(CC(=O)Nc2c(C)cccc2C)CC1 (stereo not given) [Ranolazine dihydrochloride] | 0.9667 ± 0.0051 | 0.9937 ± 0.0065 | 0.993 ± 0.019 | 0.989 ± 0.017 | 0.9663 ± 0.0057 | 0.9677 ± 0.0015
22 | COc1cc([C@@H]2c3cc4c(cc3[C@@H](O[C@@H]3O[C@@H]5CO[C@@H](C)O[C@H]5[C@H](O)[C@H]3O)[C@H]3COC(=O)[C@H]23)OCO4)cc(OC)c1O [Etoposide] |  |  | 1.01 |  |  | 
23 | CCCNCC(O)COc1ccccc1C(=O)CCc1ccccc1 (stereo not given) [Propafenone hydrochloride] | 1.013 ± 0.0058 | 0.947 ± 0.011 | 1.02 ± 0.01 | 1 ± 0.017 | 1.01 ± 0.011 | 1.02 ± 0.017
24 | O=C1c2ccc(Nc3ccc(F)cc3F)cc2CCc2ccc(OC[C@H](O)CO)cc21 [Skepinone-L] | 0.865 ± 0.015 | 0.919 ± 0.016 | 0.864 ± 0.03 | 0.87 ± 0.013 | 1.01 | 1.04 ± 0.017
25 | CCCCCCCCCCCCCCCCCC(=O)OC(CC(=O)O)C[N+](C)(C)C (racemic) [DL-Stearoylcarnitine chloride] | 0.9967 ± 0.0042 | 0.906 ± 0.03 | 1.01 ± 0.019 | 0.993 ± 0.0017 | 1.013 ± 0.0058 | 0.99967 ± 0.00058
